# Hit rate of the full screen: of about 310,000 compounds, about 14,000 (4.5%) showed an effect of 50% or more. The effect is printed as a negative number. Some of the results follow.
# Target: human ether-à-go-go-related gene (hERG) potassium channel (human, UniProt Q12809)
# Experiment: primary screen, population patch clamp on CHO cells stably expressing hERG
# 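Also: peak tail current of the secondary pulse compared with the same well before compound.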
# Sequence of human ether-à-go-go-related gene (hERG) potassium channel (Q12809 whole entry, looked up): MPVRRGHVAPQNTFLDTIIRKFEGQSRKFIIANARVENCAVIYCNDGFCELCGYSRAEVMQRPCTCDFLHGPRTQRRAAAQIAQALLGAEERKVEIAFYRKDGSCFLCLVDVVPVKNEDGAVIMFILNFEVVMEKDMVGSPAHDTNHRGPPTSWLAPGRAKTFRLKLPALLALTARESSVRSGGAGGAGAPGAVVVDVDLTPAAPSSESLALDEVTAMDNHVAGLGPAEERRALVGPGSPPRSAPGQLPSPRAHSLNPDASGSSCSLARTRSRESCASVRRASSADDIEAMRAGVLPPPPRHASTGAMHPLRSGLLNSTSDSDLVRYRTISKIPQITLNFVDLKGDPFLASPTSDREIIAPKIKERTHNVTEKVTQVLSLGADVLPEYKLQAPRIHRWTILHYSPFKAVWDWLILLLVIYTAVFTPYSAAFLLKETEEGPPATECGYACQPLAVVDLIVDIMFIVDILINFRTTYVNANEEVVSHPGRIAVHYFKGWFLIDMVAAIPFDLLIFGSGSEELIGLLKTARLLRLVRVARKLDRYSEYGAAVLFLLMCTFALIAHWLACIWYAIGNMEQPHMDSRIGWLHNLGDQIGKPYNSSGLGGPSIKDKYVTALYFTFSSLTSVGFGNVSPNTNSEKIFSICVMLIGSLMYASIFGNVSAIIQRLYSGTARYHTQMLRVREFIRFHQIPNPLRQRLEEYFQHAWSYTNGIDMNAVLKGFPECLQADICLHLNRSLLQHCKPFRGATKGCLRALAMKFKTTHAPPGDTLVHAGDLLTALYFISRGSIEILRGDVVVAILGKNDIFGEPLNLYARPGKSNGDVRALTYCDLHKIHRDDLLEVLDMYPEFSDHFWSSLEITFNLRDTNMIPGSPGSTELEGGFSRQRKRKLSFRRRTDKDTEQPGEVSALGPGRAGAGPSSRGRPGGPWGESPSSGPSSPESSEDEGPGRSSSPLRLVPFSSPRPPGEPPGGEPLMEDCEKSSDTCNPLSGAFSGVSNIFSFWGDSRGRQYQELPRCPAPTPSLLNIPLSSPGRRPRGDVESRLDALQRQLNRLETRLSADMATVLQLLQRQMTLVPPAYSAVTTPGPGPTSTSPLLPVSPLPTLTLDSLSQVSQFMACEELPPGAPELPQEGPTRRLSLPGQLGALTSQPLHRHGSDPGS
row,Compound,"hERG current change (%, negative = inhibition) at 10uM [%]"
1,CC(C(=O)N1CCOCCOCCOCCOCCOCC1)N1C(=O)c2ccccc2C1=O (stereo not shown),24
2,Cc1ccc(N2C(=O)N(CC(=O)Nc3cccc(C)c3C)C(=O)C2C)cc1 (stereo not shown),-11.8
3,O=C(/C=C/c1ccccc1)Nc1cccnc1Cl,17.6
4,CCc1nnc(NC(=O)c2ccc3c(c2)C(=O)N(C(C)(C)C)C3=O)s1,7.02
5,COc1ccc(C2C(C(=O)Nc3ccc4c(c3)OCCO4)c3ccccc3C(=O)N2C)cc1 (stereo not shown),13.3
6,O=[N+]([O-])c1cc(-c2nnc(Nc3ccc(O)cc3)c3ccccc23)ccc1N1CCOCC1,-0.242
7,Cc1ccc(CS(=O)(=O)CCC(=O)NC2CC2)cc1,1.77
8,COc1cc(-c2nnn(CC(=O)NCc3ccccc3)n2)cc(OC)c1OC,-3.93
9,CCCCNC(=O)[C@@H]1CC=C[C@@H]2CCN(Cc3ccc(Cl)c(Cl)c3)C(=O)[C@@H]21,-29.4
10,Nc1ccc(-c2nc3ccc(N)cc3o2)cc1,12.6
11,Cc1cc(NC(=O)CCC(=O)N(CC(=O)NCC2CCCO2)c2ccc(C(C)C)cc2)no1 (stereo not shown),2.63
12,O=C(Cn1nnc2ccccc2c1=O)NCCc1ccccc1,-15.2
13,O=C(Nc1cccc(Br)c1)c1cc(=O)c2ccccc2o1,19.4
14,CN(C)CCNC(=O)/C=C/c1cn(-c2ccccc2)nc1-c1cc2ccccc2oc1=O,13
15,CCn1c(SCC(=O)NCc2ccc(F)cc2)nc2c(c1=O)SC(C)C2 (stereo not shown),-49.3
16,COc1ccc(N=C2S/C(=C\c3cc(C)n(C)c3C)C(=O)N2CC(C)C)cc1,2.55
17,Cn1nc(C(F)(F)F)c(C(=O)Nc2ccc(F)cc2F)c1Sc1ccc(Cl)cc1,-4.91
18,CCC(C(=O)Oc1c(C(C)C)cccc1C(C)C)c1ccccc1 (stereo not shown),-3.84
19,O=C(Nc1nnc(-c2ccc(F)cc2)s1)Nc1ccccc1F,14.1
20,Cc1ccc(S(=O)(=O)N(C)C)cc1NC(=S)N1CCN(Cc2ccc3c(c2)OCO3)CC1,-7.52
21,CC1CCCC(C)N1S(=O)(=O)c1ccc(NC(=O)c2ccccc2C(=O)N2CCOCC2)cc1 (stereo not shown),-3.57
22,CCc1nnc(NS(=O)(=O)c2ccc(NC(=O)c3cccc(OC(F)(F)C(F)F)c3)cc2)s1,-6.51

row,Compound,"hERG current change (%, negative = inhibition) at 10uM [%]"
1,CCOC(=O)COn1c(-c2cccc(Cl)c2)nc2ccc([N+](=O)[O-])cc21,7.63
2,COc1cccc(-c2csc(NC(=O)Nc3ccccc3)n2)c1,22.6
3,O=C(Nc1ccccc1)N1CCCN(c2c(Cl)cncc2Cl)CC1,-14.2
4,COc1cc2nc(CC(C)C)n(NC(=O)c3ccccc3)c(=O)c2cc1OC,9.36
5,O=C(Nc1ccccc1)c1ccc(S(=O)(=O)NCc2cccnc2)cc1,16
6,Cc1ccsc1C(=O)OCc1cc(=O)n2ccsc2n1,-7.96
7,CC(=O)N(Cc1cccs1)C1CCOC(C)(C)C1 (stereo not shown),7.75
8,COc1ccc(NC(=O)CSc2nnc(-c3ccc(F)cc3)o2)cn1,-17.4
9,c1cc2c(cc1Nc1nc(-c3ccc4c(c3)OCO4)cs1)OCCO2,12.7
10,COc1cccc2cc(C(=O)N(Cc3ccccc3)CC3CCCO3)c(=O)oc12 (stereo not shown),-5.9
11,O=C(CSc1nnc(-c2ccncc2)n1-c1ccccc1Cl)Nc1ccc(C(=O)O)cc1,17
12,COc1ccccc1-c1csc(NC(=O)c2ccc(N3C(=O)CCC3=O)cc2)n1,7.17
13,COC(=O)Cn1c2c(c3cc(C)ccc31)CCCC2NC(C)c1ccccc1 (stereo not shown),-26.2
14,O=C(c1cc(COc2cccc3cnccc23)on1)N1CCC(c2ccccc2Cl)C1 (stereo not shown),16
15,COc1ccc(C2C(C(=O)Nc3cc(OC)c(OC)c(OC)c3)c3ccccc3C(=O)N2C)cc1 (stereo not shown),6.78
16,Cc1csc(NC(=O)CCCSc2nc3ccccc3s2)n1,-35.1
17,COc1ccc(OC)c2sc(NC(=O)CCSc3ccccc3)nc12,12.8
18,Cc1ccc(N(CC(=O)N/N=C/c2ccc(OC3CSC3)cc2)S(=O)(=O)c2ccccc2)c(C)c1,-0.595
19,O=C1COc2ccccc2N1Cc1c(F)cccc1Cl,-22.3
20,O=C(CCl)Nc1cccc(Oc2ccccc2)c1,-22.4
21,ClC(Cl)(Cl)c1nc2ccccc2n2nncc12,19.6

# Source: PMC4336329 (PLoS ONE, 2015)
